Some of these densities may be calculated back from excess volumes.
Assay: xn = mol fraction of the nth substance listed
Details: 100 kPa

OCCN(CCO)CCO + CCOS(=O)(=O)[O-].CC[n+]1ccn(C)c1
mass density [kg/m3]
Details | 293.15 K | 298.15 K | 303.15 K | 313.15 K
x1 = 0.52 | 1187 | 1184 | 1181 | 1174
x1 = 0.617 | – | 1172 | – | 1162
x1 = 0.703 | 1166 | 1162 | 1160 | 1153
x1 = 0.787 | 1155 | – | 1149 | 1143
x1 = 0.866 | 1144 | 1140 | – | 1131
x1 = 0.929 | 1135 | – | – | 1123
x1 = 0.967 | – | – | – | 1117
x1 = 1 | 1122 | 1119 | 1116 | 1111
x2 = 0.003 | 1124 | 1121 | 1118 | 1112
x2 = 0.006 | 1124 | 1121 | – | 1113
x2 = 0.019 | 1126 | 1123 | 1121 | 1115

OCCO + CCOS(=O)(=O)[O-].CC[n+]1ccn(C)c1
x1 = 1
Details | mass density [kg/m3]
293.15 K | 1113
313.15 K | 1099

OCCN(CCO)CCO + CC[n+]1ccn(C)c1.O=S(=O)([O-])C(F)(F)F
mass density [kg/m3]
Details | 293.15 K | 298.15 K | 303.15 K | 313.15 K
x1 = 0.084 | – | 1365 | – | 1353
x1 = 0.167 | 1352 | 1348 | – | –
x1 = 0.305 | 1321 | 1317 | 1313 | 1305
x1 = 0.426 | 1293 | – | 1285 | 1278
x1 = 0.539 | 1265 | – | 1257 | 1250
x1 = 0.641 | 1239 | 1236 | – | 1226
x1 = 0.723 | 1214 | 1211 | 1208 | –
x1 = 0.802 | 1189 | 1185 | 1182 | 1176
x1 = 0.875 | 1167 | – | 1161 | 1155
x1 = 0.94 | 1145 | 1141 | 1138 | 1132
x1 = 0.969 | 1133 | 1130 | 1127 | 1121
x1 = 1 | 1122 | 1119 | 1116 | 1111
x2 = 0.003 | 1124 | 1122 | 1119 | 1113
x2 = 0.006 | 1125 | 1123 | – | –
x2 = 0.017 | 1130 | 1127 | 1124 | 1118

OCCO + CC[n+]1ccn(C)c1.O=S(=O)([O-])C(F)(F)F
x1 = 1
Details | mass density [kg/m3]
293.15 K | 1113
298.15 K | 1109
303.15 K | 1106
313.15 K | 1099

CCOS(=O)(=O)[O-].CC[n+]1ccn(C)c1 + OCC(O)CO
mass density [kg/m3]
Details | 293.15 K | 298.15 K | 303.15 K | 313.15 K
x1 = 0.002 | 1260 | 1257 | 1254 | –
x1 = 0.004 | 1260 | 1256 | 1254 | –
x1 = 0.012 | 1258 | 1255 | 1252 | 1245
x2 = 0.123 | 1240 | – | 1233 | 1226
x2 = 0.264 | 1239 | 1235 | – | 1225
x2 = 0.39 | 1238 | 1235 | 1231 | 1224
x2 = 0.5 | – | 1235 | – | 1225
x2 = 0.601 | 1239 | – | 1233 | 1225
x2 = 0.703 | 1242 | 1238 | 1235 | 1228
x2 = 0.794 | 1245 | 1241 | 1238 | 1231
x2 = 0.901 | 1252 | 1248 | 1245 | 1238
x2 = 0.958 | 1256 | 1253 | 1250 | –
x2 = 0.98 | 1258 | 1255 | – | 1245

CC[n+]1ccn(C)c1.O=S(=O)([O-])C(F)(F)F + OCC(O)CO
mass density [kg/m3]
Details | 293.15 K | 298.15 K | 303.15 K | 313.15 K
x1 = 0.002 | – | 1258 | 1255 | 1248
x1 = 0.004 | 1262 | 1258 | 1255 | 1249
x1 = 0.011 | 1264 | 1260 | 1257 | 1251
x1 = 0.018 | 1266 | 1262 | 1259 | –
x2 = 0.199 | – | 1369 | 1365 | 1358
x2 = 0.299 | 1364 | 1360 | 1356 | –
x2 = 0.401 | 1356 | – | 1347 | 1340
x2 = 0.499 | 1346 | 1342 | 1338 | 1330
x2 = 0.605 | – | 1330 | 1326 | 1318
x2 = 0.698 | – | 1314 | 1310 | 1303
x2 = 0.805 | 1303 | 1299 | 1295 | 1288
x2 = 0.899 | 1286 | 1282 | 1279 | 1271
x2 = 0.919 | 1281 | 1278 | 1274 | 1267
x2 = 0.962 | – | 1268 | – | 1258

CCOS(=O)(=O)[O-].CC[n+]1ccn(C)c1 + OCCO
mass density [kg/m3]
Details | 293.15 K | 298.15 K | 303.15 K | 313.15 K
x1 = 0.001 | – | – | 1105 | 1098.5
x1 = 0.003 | 1113 | 1109 | – | –
x1 = 0.008 | 1116 | 1112 | 1109 | –
x1 = 0.014 | 1118 | 1114 | 1111 | 1104
x2 = 0.304 | 1217 | 1213 | 1208 | 1208
x2 = 0.406 | – | 1208 | 1205 | –
x2 = 0.506 | 1206 | 1202 | 1199 | 1192
x2 = 0.597 | 1196 | – | 1189 | 1182
x2 = 0.7 | 1182 | 1179 | 1175 | 1168
x2 = 0.792 | 1167 | 1163 | – | 1153
x2 = 0.851 | 1156 | – | 1148 | 1142
x2 = 0.899 | 1144 | 1141 | 1137 | 1130
x2 = 0.938 | 1134 | 1130 | 1126 | –
x2 = 0.972 | 1124 | 1120 | 1116 | 1110

CC[n+]1ccn(C)c1.O=S(=O)([O-])C(F)(F)F + OCCO
mass density [kg/m3]
Details | 293.15 K | 298.15 K | 303.15 K | 313.15 K
x1 = 0.001 | 1114 | – | 1106 | 1100
x1 = 0.002 | 1115 | 1111 | – | 1101
x1 = 0.007 | – | 1115 | 1112 | 1105
x1 = 0.013 | 1123 | 1119 | – | 1109
x2 = 0.2 | 1362 | 1357 | – | 1345
x2 = 0.413 | 1330 | 1326 | 1321 | 1314
x2 = 0.497 | 1317 | 1313 | 1308 | –
x2 = 0.587 | 1299 | 1295 | 1291 | 1283
x2 = 0.697 | 1268 | 1264 | 1260 | 1252
x2 = 0.808 | 1229 | 1225 | 1221 | –
x2 = 0.863 | 1203 | 1199 | 1195 | 1187
x2 = 0.907 | 1179 | 1175 | 1171 | 1164
x2 = 0.944 | 1157 | 1153 | 1150 | 1143
x2 = 0.974 | – | 1131 | 1128 | 1121

From a compilation of properties of binary mixtures (doi:10.1021/acs.jced.0c00987)
